Target: T1, endogenous LEAP2 (Mus musculus, UniProt Q91V13)
T1 construct: The mature form of LEAP2 found in circulation is a 40 amino acid cationic bicyclic peptide; from tissue; host or cells: live fasted mice; circulating endogenous LEAP2
T1 sequence (Q91V13 37-76): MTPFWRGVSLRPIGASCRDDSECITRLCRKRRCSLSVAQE
Assay: Growth hormone release after fasting and anti-LEAP2 antibody treatment
Assay type: in vivo, mice
Details: 10 mg/kg i.p. after 24 hour fasting
Description: FIG. 10C illustrates the experimental design for evaluating the impact of anti-LEAP2 antibodies on growth hormone release. Following a 24 hour fasting period, a baseline blood sample was taken, and anti-LEAP2 antibodies (10 mg/kg) were administered by intraperitoneal injection. Growth hormone levels were determined at 5, 10, 30, 60, 90, and 120 minutes post-injection.

B1: M2: mouse hybridoma anti-LEAP2 monoclonal antibody, VH SEQ ID NO:7, VL SEQ ID NO:8; M1 and M2 have identical sequences (antibody, V domains shown)
VH: EVQLQQSGTVLARPGASVKMSCKASGYTFTSYWMHWVKQRPGQGLEWIGAIYPGNSDTSYKQKFKGKAKLTAVTSASTVYMELSSLTDEDSAVYYCTYGKEEYLFAMDYWGQGTSVTVSS
VL: DIVMSQSPSSLAVSVGEKVTMS[here about 80 residues without letters]GGGTKLKIK
total amount of growth hormone released (AUC): increased the total amount of growth hormone released | peak of growth hormone secretion (versus control antibody): increased the peak of growth hormone secretion
